In all, about 45,000 compounds went through this assay and about 65 (0.1%) were called active. Calls follow the shape of the dose curve; as a rule, active = well fitted activation curve with a large enough effect; inconclusive = small, poorly fitted or top-dose-only effect; inactive = no such curve, though single readings can be large or run the other way. Some of the results follow.

This assay deals with Galactocerebrosidase (Homo sapiens) (UniProt P54803). The assay can be described thus: A Novel Cell-Based Assay to Identify Small Molecules for B -Galactocerebrosidase. Also: 0% is about no effect; nearly all actives have a fitted effect of over 65% in size. The conditions noted are these: 145M-Twi-hGALC-G270D cells (Twitcher mouse brain line with human GALC G270D), HMU-beta-Gal fluorescence, 48 h; series mostly up to 57.5 µM; activation: at the top concentration. The gist of the method: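 Brain-derived Twitcher mouse 145M-Twi cells stably expressing human GALC-G270D or wild-type GALC, treated live, then residual GALC activity read by fluorescence of HMU-b-Gal substrate (0.1 mM final) in citrate-phosphate buffer pH 5.2 with sodium taurocholate. Signal increase indicates enhancement.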
UniProt P54803, sequence (P54803 whole entry, looked up): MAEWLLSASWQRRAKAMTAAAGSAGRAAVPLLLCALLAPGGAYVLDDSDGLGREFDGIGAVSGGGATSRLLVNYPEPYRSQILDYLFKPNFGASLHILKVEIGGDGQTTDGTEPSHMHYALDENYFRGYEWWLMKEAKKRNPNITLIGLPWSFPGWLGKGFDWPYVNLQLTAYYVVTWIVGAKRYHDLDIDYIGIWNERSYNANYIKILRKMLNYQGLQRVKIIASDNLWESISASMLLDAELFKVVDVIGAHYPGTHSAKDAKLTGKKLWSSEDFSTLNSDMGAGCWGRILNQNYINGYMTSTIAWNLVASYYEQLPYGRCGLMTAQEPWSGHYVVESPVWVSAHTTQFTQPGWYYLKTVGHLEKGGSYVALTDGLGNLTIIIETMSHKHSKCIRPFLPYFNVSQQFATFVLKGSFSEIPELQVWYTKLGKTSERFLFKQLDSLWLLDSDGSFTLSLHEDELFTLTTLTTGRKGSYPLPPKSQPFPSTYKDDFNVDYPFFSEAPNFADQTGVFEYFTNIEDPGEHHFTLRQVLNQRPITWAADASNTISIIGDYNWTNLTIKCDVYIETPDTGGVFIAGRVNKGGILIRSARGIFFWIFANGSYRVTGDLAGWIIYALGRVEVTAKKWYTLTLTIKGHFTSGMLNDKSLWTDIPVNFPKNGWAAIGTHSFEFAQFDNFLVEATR
Consider `Cc1ccccc1OCCSc1nnc(-c2cccs2)o1`, for which the “activation” value is inactive: 8.43%.
To `CCOc1ccc(NC(=O)C(C)n2c(=O)cc(-c3ccccc3)c3c(C)nn(C)c32)cc1` (stereo unspecified) belongs inactive: -13.5%; to `CC1CN(C(=O)N2CCC(C(=O)NCc3ccccc3F)CC2)c2cc(Cl)ccc2O1` (stereo unspecified), inactive: -8.53%.
To `COc1ccccc1N1CCN(C(=O)Cn2c(=O)nc(-c3ccccc3)c3ccccc32)CC1` belongs inactive: -10.2%; to `Cc1ccc2nc(-c3ccc(C)s3)c(Nc3ccc4c(c3)OCCO4)n2c1`, inactive: -4.7%.
Then `COc1ccccc1-c1nn(CCC(=O)Nc2ccccc2)c2nc(C)cc(C)c12`, with inactive: -13.9%.
With `COc1ccc(CCNC(=O)CN(c2ccccc2)S(=O)(=O)N(C)C)cc1`, the “activation” value is inactive: -17%.
To `O=C(Nc1ccc(F)c(F)c1)C(c1ccccc1)N1Cc2ccccc2C1=O` (stereo unspecified) belongs inactive: -10.6%; to `COc1ccccc1C(=O)Nc1ccc(-c2cc(C(F)(F)F)nn2-c2ccccc2)cc1`, inactive: -5.34%; to `CCOC(=O)c1c(C)[nH]c(C)c1S(=O)(=O)N1CCCC(C(=O)N2CCN(c3cccc(Cl)c3)CC2)C1` (stereo unspecified), inactive: -19.5%.
Then `Cc1ccc(C(=O)N2CCN(CCc3ccncc3)CC2)cc1`, with inactive: 3%; and `CCOc1ccccc1NC(=O)Cn1c(=O)n(CCCC(=O)NCc2ccc(C)cc2)c(=O)c2ccccc21`, with inactive: -13.6%; and `Cc1cccc2sc(N(Cc3cccnc3)C(=O)c3ccco3)nc12`, with inactive: -10.2%.
Turning to `COc1ccccc1OCC(=O)NCCS(=O)(=O)N1CCN(c2ccccc2OC)CC1`, the “activation” value is inactive: -5.15%.
Then `Cc1nn(C(C)C(=O)NCc2ccco2)c(=O)c2nn(-c3ccccc3)c(C)c12` (stereo unspecified), with inactive: -16.7%.
Then `Cc1ccc2[nH]cc(C(c3ccccc3)c3ccc(Cl)s3)c2c1` (stereo unspecified), with inactive: -23.2%; and `CCN(CC)CCNC(=O)c1cc2c(-c3cccc(OC)c3)nn(C)c2s1`, with inactive: -9.49%.
In the case of `CN1C(=O)c2ccccc2Sc2ccc(NC(=O)N3CCN(c4ccc(F)cc4)CC3)cc21`, the “activation” value was inactive: -15.6%.
As for `COc1ccc(NC(=O)C(NS(=O)(=O)c2cccc3nsnc23)C(C)C)cc1OC` (stereo unspecified), the “activation” value is inactive: -7.1%.
For `COc1ccc(-c2nc(S(=O)(=O)c3ccccc3)c(N3CCC(C)CC3)o2)cc1`, the “activation” value was inactive: -18.8%.
To `COc1ccc(C(=O)NCCc2csc(-c3ccc(Cl)cc3)n2)c(OC)c1` belongs inactive: -7.21%; to `Cc1ccc(Cl)cc1-n1c(SCC(=O)NCc2ccccc2)nc2n[nH]c(C)c2c1=N`, inactive: -15.9%; to `CSc1ccc(CCNC(=O)CN2C(=O)COc3ccc(S(=O)(=O)N4CCCCCC4)cc32)cc1`, inactive: -4.95%.
To `CCOc1ccc(CNC(=O)c2cc3cc(S(=O)(=O)N4CCCCC4)ccc3n2C)cc1` belongs inactive: -14.6%; to `Oc1ccc(NCc2ccccc2OCc2ccccc2)cc1`, inactive: -14.2%.
Take `CC1CCN(S(=O)(=O)c2ccc3c(c2)N(CC(=O)Nc2ccc(F)c(Cl)c2)C(=O)CO3)CC1`: the “activation” value is inactive: -18.2%.
To `COc1ccc(NC(=O)c2oc3ccccc3c2NC(=O)Cc2ccc(F)cc2)c(OC)c1` belongs inactive: -11.4%; to `COc1ccc(Cl)cc1-n1c(CCC(=O)O)ccc1-c1ccc(C)cc1`, inactive: -19.2%; to `O=C(CC1N=C2c3ccccc3N=C(SCc3ccccc3Cl)N2C1=O)NC1CCCCC1` (stereo unspecified), inactive: -21.2%.
`COc1ccc(-c2nc3ccc(C(=O)NCc4ccc(C)cc4)cc3nc2-c2ccc(OC)cc2)cc1`: the “activation” value was inactive: -13.6%.
To `Cc1cc(=O)[nH]c(SCC(=O)N2CCN(c3ccccc3)CC2)n1` belongs inactive: -9.51%.
To `CCN1CCN(c2cc(C)c3cc(NC(=O)c4cc(OC)cc(OC)c4)ccc3n2)CC1` belongs inactive: -15.2%; to `Cc1ccc(OCCn2c(COc3ccc(Cl)cc3)nc3ccccc32)cc1`, inactive: -7.06%.
To `COc1ccc(Br)cc1CNC(=O)CCSCc1ccc(Cl)cc1` belongs inactive: -5.82%; to `CCC(=O)N1CCc2cc(CNS(=O)(=O)c3cc(Cl)ccc3OC)ccc21`, inactive: -12.4%; to `Cc1nn(CC(=O)N2CCN(c3ccccc3)CC2)c(=O)c2cc3sccc3n12`, inactive: -20%.
Take `CC1CCN(C(=O)c2ccc(NC(=O)c3nsc4ccccc34)cc2)CC1`: the “activation” value was inactive: -26%.
For `CCOC(=O)c1sc(NC(=O)c2nc3nc(C)cc(C(F)F)n3n2)c(C(=O)OC)c1C`, the “activation” value is inactive: -10.8%.
Then `COc1cccc(NC(=O)N2CCC(CN3CCOCC3)CC2)c1`, with inactive: -12.2%; and `CCC(C)NC(=O)Cn1cnc2sc(C)c(S(=O)(=O)N3CCN(c4ccccc4OC)CC3)c2c1=O` (stereo unspecified), with inactive: -11.7%.
Then `Cc1c(C(=O)Nc2cccc(Cl)c2)oc2ccc(S(=O)(=O)N3CCOCC3)cc12`, with inactive: -11.5%; and `COc1ccc(N2C(=O)CCSC23C(=O)N(Cc2ccc(F)cc2)c2ccccc23)cc1Cl` (stereo unspecified), with inactive: -7.49%.
As for `Cc1cccc(N2CCN(S(=O)(=O)c3c(C)nc4scc(C)n4c3=O)CC2C)c1` (stereo unspecified), the “activation” value is inactive: -11.3%.
With `Cc1ccc(CCNC(=O)CN2N=C(c3ccc(C)cc3)CCC2=O)cc1`, the “activation” value is inactive: -12.5%.
For `CCc1ccccc1NC(=O)Cn1c(=O)ccc2cc(S(=O)(=O)N3CCC(C)CC3)ccc21`, the “activation” value was inactive: -21.7%.
With `Cn1nc(C(=O)Nc2ccccc2C#N)c2c1-c1ccccc1SC2`, the “activation” value was inactive: -7.43%.
Then `Cc1ccc(NC(=O)CN2C(=O)C(C)(C)c3cc(S(=O)(=O)N4CCCCC4)ccc32)c(Br)c1`, with inactive: -28.3%.
To `CCOc1cccc(C2c3c(oc4cc(C)c(C)cc4c3=O)C(=O)N2c2nc(C)c(C)s2)c1` (stereo unspecified) belongs inactive: -2.59%; to `O=C(NC1CC(=O)N(c2ccc(Cl)cc2)C1)C1CCCCC1` (stereo unspecified), inactive: -12.5%.
Then `CCOc1ccc(Nc2oc(/C=C/c3cc(OC)c(OC)c(OC)c3)nc2C#N)cc1`, with inactive: -9.58%; and `COc1cc(C(=O)NCCSc2c(C)[nH]c3ccccc23)cc(OC)c1OC`, with inactive: -9.8%; and `CCOc1ccc(NC(=O)CSc2nc3ccccc3c(=O)n2CCC(=O)NC2CCCCC2)cc1`, with inactive: -4.77%.
For the compound `COc1ccc(NC(=O)CN(C)S(=O)(=O)c2cnc[nH]2)cc1`, the “activation” value is inactive: -15.4%.
To `CCc1ccccc1NC(=O)[C@H](Cc1ccccc1)N1Cc2ccccc2C1=O` belongs inactive: -11.9%; to `COC(=O)c1c(NC(=O)/C(C#N)=C/c2ccc(OC)cc2)sc2c1C(C(=O)OC)CC2` (stereo unspecified), inactive: -15.5%; to `COc1ccc(CCNC(=O)CSc2cn(CCNC(=O)c3ccc(OC)c(OC)c3)c3ccccc23)cc1OC`, inactive: -4.46%.
Turning to `O=C(O)CSc1nc2ccccc2nc1N1CCCCC1`, the “activation” value is inactive: -4.01%.
Then `COc1ccc(-c2noc(C3CC(=O)N(c4ccc5c(c4)OCCO5)C3)n2)c(OC)c1` (stereo unspecified), with inactive: -3.09%; and `COc1cccc(NS(=O)(=O)c2cc(-c3cnc(C4CC4)o3)ccc2C)c1`, with inactive: -5.39%.
Then `CC(=O)c1cc2c(cc1N/C(=N/S(=O)(=O)c1ccc(C)cc1)c1ccc(Cl)cc1)OCO2`, with inactive: -11.7%.
Regarding `O=C(CCn1c(=O)c2cccn2c2cccnc21)NCc1cccc(Br)c1`, the “activation” value was inactive: -2.64%.

These data come from PubChem BioAssay AID1159614 (National Center for Advancing Translational Sciences (NCATS), 2016).
